Experimental findings from article PMC5700166 are described below.

Common to all, as to assay: protein-binding microarray (PBM)
Holding throughout (settings): PBM: ~300 nM protein, 6 mM HEPES pH 7.8, 80 mM KCl, 0.5 mM EDTA, 0.5 mM EGTA, 6% glycerol, 35 ng/ul poly-dIdC, 1% milk, 1 h, room temperature; Ap Aiptasia and Nv Nematostella (sea anemones) / Co Capsaspora / Aq Amphimedon (sponge) / Dm Drosophila / Hu human; RHD is the Rel homology domain; high values mean tight binding; most listed sequences are background and not binding sites; double strand, one strand shown

One experiment concerns the target T1, GST-Ap-NF-kB RHD (UniProt A0A913YAJ5).
T1 sequence: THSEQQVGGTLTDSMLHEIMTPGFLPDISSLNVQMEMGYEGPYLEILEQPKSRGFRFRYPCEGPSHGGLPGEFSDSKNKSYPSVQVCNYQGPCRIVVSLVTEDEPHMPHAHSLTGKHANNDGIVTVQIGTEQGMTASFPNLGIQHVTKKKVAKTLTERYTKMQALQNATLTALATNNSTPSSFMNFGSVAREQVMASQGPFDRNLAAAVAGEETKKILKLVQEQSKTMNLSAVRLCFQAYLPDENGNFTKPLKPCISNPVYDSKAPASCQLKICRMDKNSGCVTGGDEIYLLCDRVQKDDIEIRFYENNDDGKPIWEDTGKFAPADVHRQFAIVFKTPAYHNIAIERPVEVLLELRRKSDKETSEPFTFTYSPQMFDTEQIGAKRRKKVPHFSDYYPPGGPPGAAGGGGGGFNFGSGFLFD

The target of experiment [1] is T2, GST-Nv-NF-kB (Cys allele) (UniProt E5G601).
T2 sequence: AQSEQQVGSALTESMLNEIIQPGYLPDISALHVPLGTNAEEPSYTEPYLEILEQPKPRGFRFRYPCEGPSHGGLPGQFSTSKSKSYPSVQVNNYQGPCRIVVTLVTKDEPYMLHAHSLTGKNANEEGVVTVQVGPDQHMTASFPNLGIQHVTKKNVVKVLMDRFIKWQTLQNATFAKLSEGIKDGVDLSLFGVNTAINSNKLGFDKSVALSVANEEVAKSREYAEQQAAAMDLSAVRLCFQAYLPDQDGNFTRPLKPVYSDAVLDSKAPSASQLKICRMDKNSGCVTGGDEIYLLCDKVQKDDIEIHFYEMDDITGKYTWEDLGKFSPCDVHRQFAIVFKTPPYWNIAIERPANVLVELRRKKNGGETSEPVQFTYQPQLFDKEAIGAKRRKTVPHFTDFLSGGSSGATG

For the next experiment, the target named is T3, GST-Co-NF-kB (UniProt F1ARL5).
T3 sequence: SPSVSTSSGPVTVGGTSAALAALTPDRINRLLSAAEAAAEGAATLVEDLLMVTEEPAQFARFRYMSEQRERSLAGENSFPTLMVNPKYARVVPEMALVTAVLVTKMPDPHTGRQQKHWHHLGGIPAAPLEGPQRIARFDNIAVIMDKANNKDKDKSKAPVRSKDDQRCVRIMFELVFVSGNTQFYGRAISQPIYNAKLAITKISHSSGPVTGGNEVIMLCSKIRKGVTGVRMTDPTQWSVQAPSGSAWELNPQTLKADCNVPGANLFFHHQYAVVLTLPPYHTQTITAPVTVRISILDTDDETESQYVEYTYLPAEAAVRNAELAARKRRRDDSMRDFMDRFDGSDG

The next experiment addresses T4, GST-Dm-Relish (UniProt Q94527).
T4 sequence: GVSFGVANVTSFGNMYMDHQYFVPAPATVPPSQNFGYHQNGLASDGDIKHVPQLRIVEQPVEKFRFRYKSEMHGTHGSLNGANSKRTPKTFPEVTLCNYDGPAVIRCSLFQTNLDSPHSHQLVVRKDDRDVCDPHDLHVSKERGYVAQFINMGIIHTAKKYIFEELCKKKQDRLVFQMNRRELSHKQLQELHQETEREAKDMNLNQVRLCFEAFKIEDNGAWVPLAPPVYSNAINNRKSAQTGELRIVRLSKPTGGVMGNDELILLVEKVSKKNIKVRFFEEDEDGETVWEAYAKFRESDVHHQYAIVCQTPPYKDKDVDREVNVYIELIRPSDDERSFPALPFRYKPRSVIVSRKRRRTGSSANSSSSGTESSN

In a further experiment the target is T5, GST-Aq-NF-kB (UniProt A9Y5G7).
T5 sequence: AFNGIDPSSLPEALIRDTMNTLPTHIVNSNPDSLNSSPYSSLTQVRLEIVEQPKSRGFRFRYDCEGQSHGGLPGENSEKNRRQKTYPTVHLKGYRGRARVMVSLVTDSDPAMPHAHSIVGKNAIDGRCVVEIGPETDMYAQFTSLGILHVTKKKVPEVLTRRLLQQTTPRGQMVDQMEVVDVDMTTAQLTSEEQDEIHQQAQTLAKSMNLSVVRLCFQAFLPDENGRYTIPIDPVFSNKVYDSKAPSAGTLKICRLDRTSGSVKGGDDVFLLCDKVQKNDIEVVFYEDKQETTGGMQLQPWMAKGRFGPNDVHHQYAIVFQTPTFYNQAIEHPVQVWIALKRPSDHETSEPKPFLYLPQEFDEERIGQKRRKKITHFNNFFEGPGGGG

Only a part is listed here, and it is no random draw. The list includes weakly bound sequences.

With “CCGATTAACATCAACTCCGAGGTTGATGTTAATCGGGTCTTGATTCGCTTGACGCTGCTG”, the binding signal with GST-Ap-NF-kB RHD is -0.504 z-score; in experiment [1], -0.117 z-score; with GST-Co-NF-kB, -0.657 z-score; with GST-Dm-Relish, -0.184 z-score; with GST-Aq-NF-kB, -0.35 z-score.
As for “CCGATTAACATCATAGTGGCTAATGATGTTAATCGGGTCTTGATTCGCTTGACGCTGCTG”, the binding signal with GST-Ap-NF-kB RHD is -0.486 z-score; in experiment [1], 0.124 z-score; with GST-Co-NF-kB, 0.118 z-score; in the experiment with GST-Dm-Relish it was -0.086 z-score; with GST-Aq-NF-kB it was -0.274 z-score.
On to “CCGATTAACATCATACTCACTCGTGATGTTAATCGGGTCTTGATTCGCTTGACGCTGCTG”, for which the binding signal was -0.43 z-score with GST-Ap-NF-kB RHD; -0.0735 z-score in experiment [1]; 0.45 z-score in the experiment with GST-Co-NF-kB; -0.374 z-score with GST-Dm-Relish; -0.448 z-score in the experiment with GST-Aq-NF-kB.
On to “CCGATTAACATCAAAGAGGTTCCTGATGTTAATCGGGTCTTGATTCGCTTGACGCTGCTG”, for which the binding signal was 0.29 z-score in the experiment with GST-Ap-NF-kB RHD; 0.207 z-score in experiment [1]; 0.0737 z-score in the experiment with GST-Co-NF-kB; -0.163 z-score with GST-Dm-Relish; -0.358 z-score with GST-Aq-NF-kB.
With “CCGATTAACATCACGGGCACTCCTGATGTTAATCGGGTCTTGATTCGCTTGACGCTGCTG”, the binding signal was 0.11 z-score with GST-Ap-NF-kB RHD; -1.18 z-score in experiment [1]; 0.476 z-score with GST-Co-NF-kB; 0.207 z-score with GST-Dm-Relish; 0.479 z-score in the experiment with GST-Aq-NF-kB.
Take “CCGATTAACATCAGTCATGTTTCTGATGTTAATCGGGTCTTGATTCGCTTGACGCTGCTG”: the binding signal with GST-Ap-NF-kB RHD is -0.289 z-score; in experiment [1], -0.124 z-score; with GST-Co-NF-kB, -0.251 z-score; with GST-Dm-Relish, -0.782 z-score; with GST-Aq-NF-kB it was -0.34 z-score.
For “CCGATTAACATCAACAAAGGTGATGATGTTAATCGGGTCTTGATTCGCTTGACGCTGCTG” the same measures were 0.0136 z-score, 0.13 z-score, 0.0773 z-score, -0.578 z-score and 0.202 z-score.
With “CCGATTAACATCACTGCTGAGACTGATGTTAATCGGGTCTTGATTCGCTTGACGCTGCTG”, the binding signal is -0.179 z-score in the experiment with GST-Ap-NF-kB RHD; -0.0966 z-score in experiment [1]; 0.188 z-score with GST-Co-NF-kB; -0.724 z-score in the experiment with GST-Dm-Relish; -0.516 z-score with GST-Aq-NF-kB.
As for “CCGATTAACATCAGACAGTGTCTTGATGTTAATCGGGTCTTGATTCGCTTGACGCTGCTG”, the binding signal was -0.0886 z-score with GST-Ap-NF-kB RHD; 0.323 z-score in experiment [1]; -0.129 z-score with GST-Co-NF-kB; -0.668 z-score with GST-Dm-Relish; -0.55 z-score in the experiment with GST-Aq-NF-kB.
Regarding “CCGATTAACATCACTAAAATTATTGATGTTAATCGGGTCTTGATTCGCTTGACGCTGCTG”, the binding signal is -0.674 z-score with GST-Ap-NF-kB RHD; -0.31 z-score in experiment [1]; -0.581 z-score with GST-Co-NF-kB; 0.182 z-score with GST-Dm-Relish; 0.015 z-score with GST-Aq-NF-kB.
For “CCGATTAACATCAAGACCCGCTTTGATGTTAATCGGGTCTTGATTCGCTTGACGCTGCTG” the same measures were 0.199 z-score, -1 z-score, -0.679 z-score, -0.319 z-score and 0.111 z-score.
For the sequence “CCGATTAACATCAGCTCGCGTATTGATGTTAATCGGGTCTTGATTCGCTTGACGCTGCTG”, the binding signal in the experiment with GST-Ap-NF-kB RHD is -0.119 z-score; in experiment [1], -0.493 z-score; in the experiment with GST-Co-NF-kB, 0.152 z-score; with GST-Dm-Relish, -0.448 z-score; with GST-Aq-NF-kB it was -0.535 z-score.
For “CCGATTAACATCAGGAGAATCCATGATGTTAATCGGGTCTTGATTCGCTTGACGCTGCTG” the same measures were -0.585 z-score, -0.554 z-score, -0.445 z-score, -0.144 z-score and 0.209 z-score.
Consider “CCGATTAACATCACCAAAATTCCTGATGTTAATCGGGTCTTGATTCGCTTGACGCTGCTG”, for which the binding signal with GST-Ap-NF-kB RHD was determined as 0.548 z-score; in experiment [1] it was 0.437 z-score; with GST-Co-NF-kB, 0.389 z-score; with GST-Dm-Relish it was 1.01 z-score; with GST-Aq-NF-kB, 1.17 z-score.
